This note sets out measurements from the supplement of paper PMC10681739.

± gives the standard deviation of the averaged measurements. Whole data set: some 4,000 sequences, median “arbitrary fluorescence units” near 830, cut for the highest 2% near 6,500. This part holds few or none of the hits.
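Note: Full-length recombinant human RUNX1 bound to double-stranded DNA microarray spots, detected with an Alexa488-labelled secondary antibody after the anti-RUNX1 primary, read as scanned spot fluorescence.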

Chain of UniProt Q01196 (Q01196 whole entry): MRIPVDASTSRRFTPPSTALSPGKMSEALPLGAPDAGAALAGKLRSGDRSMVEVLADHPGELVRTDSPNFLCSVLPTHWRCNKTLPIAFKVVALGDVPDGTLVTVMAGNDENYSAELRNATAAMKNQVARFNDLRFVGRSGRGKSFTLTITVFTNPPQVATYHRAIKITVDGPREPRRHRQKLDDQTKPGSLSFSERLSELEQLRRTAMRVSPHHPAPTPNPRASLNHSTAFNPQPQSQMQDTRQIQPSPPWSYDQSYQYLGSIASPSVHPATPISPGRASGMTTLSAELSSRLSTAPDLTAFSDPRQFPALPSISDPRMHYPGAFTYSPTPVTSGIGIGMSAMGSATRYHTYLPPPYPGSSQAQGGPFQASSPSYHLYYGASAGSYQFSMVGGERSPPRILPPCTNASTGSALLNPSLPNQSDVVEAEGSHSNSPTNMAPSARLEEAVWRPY

The assay addresses RUNX1 (UniProt Q01196). Kind of assay: RUNX1 binding intensity (PBM fluorescence), RUNX1 alone (arbitrary fluorescence units); higher = stronger binding. To be noted: RUNX1 concentration 2 nM; ETS1 concentration 0 nM. The protocol:
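gcPBM on 36-bp genomic-derived probes (partner site mutated) containing one RUNX1 site and no ETS1 site. Recombinant human RUNX1 (2 nM) was incubated alone or with ETS1 (25 nM) and detected by anti-RUNX1 antibody fluorescence. Values are medians over 4 replicate spots (not normalised). The probes sit in constant array flanks that are not printed.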
TGTTGGACCACAGGCAATTGCCTGTTCAGAAAGAGA displayed an RUNX1 binding intensity of 778.

Sequence CTCCATTATTCCAGCCAGGTGCCCTTGTGGGATAAG displayed an RUNX1 binding intensity of 819.

For the sequence AATCTGAAACAGGCAATAAGTCTGTGGTTGTGTGTT, the RUNX1 binding intensity was determined as 702.

The sequence GGGCTGGGGCCGCAGCGGGGCTTACGGCCCCCCAGG had an RUNX1 binding intensity of 678.

For CGGGGCGAAACCACTGTTGGCTCATTTACGGGTGGG, the RUNX1 binding intensity is 873.

The sequence ACGCCTGTGGTCCCAGCTACTCAGCAAGCTGAGGTG gave an RUNX1 binding intensity of 831.

GTGTGTGGGTGGGGAGAGCTGCAGCCACAGTAAACG showed an RUNX1 binding intensity of 790.

AGTGGGTGGTTTTCAGCCCTTATCTTGCTGGACCAT gave an RUNX1 binding intensity of 788.

GGCCGAAGCTGCCGCTGCCTTGCGCCCCCACACACG: the RUNX1 binding intensity came to 870.

In turn, CATCAGTTTGTGGCTGCCGAGTGCTTGCTGGGAATT gave an RUNX1 binding intensity of 799.

The sequence CCTGTCCTGACCGCGGCGAATAACATTGCCTACAGC displayed an RUNX1 binding intensity of 1190.

Sequence AAAGTATCTTCTGTGGTGAATCGGAGACAAAACTCA showed an RUNX1 binding intensity of 827.

The sequence CTTTGCAGCAAGCTGGGGTTCACCCACAGCCTTGTT returned an RUNX1 binding intensity of 789.

As to AGGTTCCTGCGGTGGCCGCGTGCTGGTTCCATTAGC, the RUNX1 binding intensity came out at 884.

CTGTGGTGACCCGGCAGGAGTAGCGTCGGGAGCAAT displayed an RUNX1 binding intensity of 709.

TGGGGCTAGGCTTACGGGGCTCTGCGGTCCTCGGCC showed an RUNX1 binding intensity of 742.

GGTCTGTGGCCCTGGGCACCTCCATACGCCGCGGCG came in with an RUNX1 binding intensity of 763.

AAATTCTTGAGGTTACTTTGGAGGCGTATGGATGGG registered an RUNX1 binding intensity of 835.

In turn, CACCGACCGTAAGGGCCCCAAGGATCCCCGCAGCAG had an RUNX1 binding intensity of 777.

Sequence GGGGGGAGGTGGCGCCACCAGGTGGTGGTTGCTTTG had an RUNX1 binding intensity of 782.

As for ACTGCGGCTGAGACACAGAAGGGAAAGGCTGTGACC, the RUNX1 binding intensity turned out to be 762.

With GACTGGCTGCGGGAGGGGTTTAGGCTTCGGCCCCCA, the RUNX1 binding intensity worked out at 855.

GGGCGCCCGCGGTTTAGAAACTACATTGCCCATGAG returned an RUNX1 binding intensity of 1330.

As for CAAGCCACCTCCTTTCTTGCTCCCACAACCTGTGTT, the RUNX1 binding intensity was 1220.

GAAGTGGTGGCGGCCGCAGGCCAGGCAGGACAAGTG yielded an RUNX1 binding intensity of 726.

Sequence GAGGGAGGTCCTCGGGCGTCTCCTTGTGGCGGCGGG returned an RUNX1 binding intensity of 683.

Consider AAACCAGAGGCAGTGGATTCCAACCACAAACCTCAC, for which the RUNX1 binding intensity came to 1040.

Sequence CTCCTGAGGCAGTAGTTACAGACACCACAGCGGAGG showed an RUNX1 binding intensity of 832.

On to CAACTATAACCACAACTACGGCCAACAGCCGAGTGC, for which the RUNX1 binding intensity turned out to be 3470.

As to TGCTTAGCGGGACGTGCTTACACCACAAAACAAGAC, the RUNX1 binding intensity is 730.

CGGCACCACTGCCGAGTGGAGCACGCGGTGGCCGAG had an RUNX1 binding intensity of 995.

As to CTCGGCGCCCGCGGTCCATGGACCCGAACCTCGGGC, the RUNX1 binding intensity was 735.

CTTCCTTCCCTTCGTTCTGCTCCCTCCCACAGCCGC gave an RUNX1 binding intensity of 2240.

Turning to CTGTGGTGTCGGAGGCTGTGACGTCGGGAGGTAAGT, the RUNX1 binding intensity was 799.

Take CAGCAAGCCACAGGCAGTAAACATTGCCTGTCCCCA: the RUNX1 binding intensity amounted to 880.

Regarding CCACCCACTTGCTGCCCTAGCTAGTGTGGTATTTTT, the RUNX1 binding intensity amounted to 906.

Sequence GACTGGTTGCCTGGTTTTGATGTGGTTTAGAGAAAA came in with an RUNX1 binding intensity of 1060.

Sequence GTTTTCAGGTTGTGGTGCGTGTAGGAGGTGCTCTGG registered an RUNX1 binding intensity of 939.

The sequence CCTGTGGTGAGGCCAGCAGAGGCTCAGCAAGGGAGC registered an RUNX1 binding intensity of 728.

CTGGGCAGCAAAGGACCTGGCCTCCCAGCCCACAGG gave an RUNX1 binding intensity of 778.

CAACCAGCCCCACAGCTGAGCTTGCGCTCAGCTCTC had an RUNX1 binding intensity of 929.

On to CAGCGGCGGCTGCGGCGGTGGCGGCAGTGGAGTGGG, for which the RUNX1 binding intensity was found to be 832.

Sequence GATGACTGCCTCAGTTCAGGGCTATGTGCGGGGGAG came in with an RUNX1 binding intensity of 786.

As for GTGGGGCGGGCTTCAGGCGCTCCCACCGCGAGCCGA, the RUNX1 binding intensity is 659.

Turning to ACGCGTGCGGGGGAGGTGGCTTCTTACGGCCGGGCC, the RUNX1 binding intensity stood at 770.

With GGGACAACCGCGGGCCTCGCTCCTCCCCGTACGGGG, the RUNX1 binding intensity was found to be 839.

In the case of AGCGACAGCGGCTGCTCTCTGGCCGCAACATTCTTT, the RUNX1 binding intensity amounted to 884.

In the case of AACCAGTTCATCATGGGAGCTGCTGCGGGTTCTTCA, the RUNX1 binding intensity came out at 733.

Sequence GTTGAGTTCCAGGGGAGGTTGAGTTCCTGCGGTCAA had an RUNX1 binding intensity of 1040.

As to ACCCCTTCAGCAAGCACTCACCCACAGCCAGGCTCC, the RUNX1 binding intensity was 980.

In the case of GAGGGCTGCTTGCTGCTCTGTGGAGGCCGCAGCGGG, the RUNX1 binding intensity amounted to 709.

For the sequence TTGCTTTATCACCTCCTGTTTGAGGTTTATATCCAT, the RUNX1 binding intensity was found to be 1170.

In turn, ACATTCTTACGGTTGGACCTCCGCGGTCAGCGCTGT came in with an RUNX1 binding intensity of 1130.

Sequence TCGTGCAAATTCCCCAAATGTGGGAAGCTCGACTGC displayed an RUNX1 binding intensity of 700 ± 27.

For the sequence ACGTCGTCGCCGCAGGGCCCCTTGCGCCTCCGTTCC, the RUNX1 binding intensity is 1030.

For the sequence GGGCGGTTACCGAGGCCCGCCACCGCCTGAAGGGTG, the RUNX1 binding intensity was 752.

Take CAGGTGTTCAAGAAACAAAACCACAGACTTTTTCAC: the RUNX1 binding intensity is 3140.

Sequence GTCCCCGACTTTCGCTCTCGGTTGGTGGTTGGCTTT returned an RUNX1 binding intensity of 918.

AGCGGTATGCTGTTGTCTTACTGTGGTGACGTCATC: the RUNX1 binding intensity came out at 727.

Regarding CTTAAACCGGCCACAACAGCTCACCCATCGTGTCGG, the RUNX1 binding intensity worked out at 842.

GCAGTCGAGCTTCCCACATTTGGGGAATTTGCACGA yielded an RUNX1 binding intensity of 699 ± 20.

For TGCCCGCGGGCCGCAGCCACCGTATTTGCGCGTTTT, the RUNX1 binding intensity is 811.

Consider CTGGGAGGATCTGACCTCAACCTTCCAGCTGCACCC, for which the RUNX1 binding intensity was 839.

TCCCTTGCTCCTCCCTCAGCCATATGCGGTGCTGTA: the RUNX1 binding intensity was 1050.

Consider GCTAACCACCGACCTCGAAGCAGAGGAGGTGCAGTC, for which the RUNX1 binding intensity is 857.

In the case of CCTCCCGGCTTTCGTTCCTTGACCACCTCCTTCTCG, the RUNX1 binding intensity was 1980.

Regarding CGGCCGCCCGGCCTCCTCTCCCGCCGCAGCCCTGGC, the RUNX1 binding intensity was 863.

Turning to AGCGCCGGGAGTGTGTCTGCGTAAAACTGCGGCTCG, the RUNX1 binding intensity was 739.

GCCTGGTGGCTGAAAGGCTGCGGCCCCGCGCCAGAG yielded an RUNX1 binding intensity of 761.

CTCAATTCAGACCACCAACACGGCCGTAAGCAACTC yielded an RUNX1 binding intensity of 868.

For the sequence TTGACCACAAAGGAAGGGCAGATGGCACGAAACAGG, the RUNX1 binding intensity stood at 1110.

Regarding CCTGGGAGCTGCTGCGGGTTCTTCCGAGAATCCGAA, the RUNX1 binding intensity is 846.

The sequence GTGCTGTGACCACAACGTACACAGCAGCAAGGAAGG came in with an RUNX1 binding intensity of 1510.

GGCAGGCACCACAGAAGCCGGGCTCCCGTCTGACTG had an RUNX1 binding intensity of 682.

TGCCATCTTGTGGTGGCGCCGGGTTTGCGCTCAGGC came in with an RUNX1 binding intensity of 778.

Regarding GAGCACATGAAAAGCTGGTGCCAACCACAAGTGCTT, the RUNX1 binding intensity turned out to be 861.

Consider TCTGCGGGAGAGGCTGCAGCGGAGGCCGAAGCAGGA, for which the RUNX1 binding intensity was determined as 731.

The sequence TCTCTTCTCCCCAGCCGCCCGAGACCACAGCCACTC registered an RUNX1 binding intensity of 1600.

ACAGCGCCTCTGCCTGCTCTACCACATCTGATGTCC had an RUNX1 binding intensity of 907.

For AGTGTGGTAGAGAGATATTTTTTGTCTCCGTGTTGG, the RUNX1 binding intensity came out at 796.
